Laboratory results taken from the supplement of paper PMC8728848.
This is one part of the list.

Tests used:
Assay in all cases: glycan array binding signal (z-score within array); higher = stronger binding
Settings in all cases: glycan notation: IUPAC condensed, linker removed
[1] = biological target: Gal(b1-4)GlcNAc(b1-2)[Gal(b1-4)GlcNAc(b1-6)]Man(a1-6)[GlcNAc(b1-4)][Gal(b1-4)GlcNAc(b1-2)Man(a1-3)]Man(b1-4)GlcNAc(b1-4)GlcNAc
Method in brief: (§1)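 Negative Z-scores can be read as non-binding. The Z-score is calculated within each array and then averaged across arrays of one protein sequence at different concentrations or buffers and across linkers. Arrays, 3228 in all, were curated from the Consortium for Functional Glycomics database and kept only where the protein sequence was available.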

[2] = biological target: Gal(b1-4)GlcNAc(b1-2)[Gal(b1-4)GlcNAc(b1-6)]Man(a1-6)[GlcNAc(b1-4)][Gal(b1-4)GlcNAc(b1-2)[Gal(b1-4)GlcNAc(b1-4)]Man(a1-3)]Man(b1-4)GlcNAc(b1-4)[Fuc(a1-6)]GlcNAc
Method in brief: as §1

[3] = biological target: Gal(b1-4)GlcNAc(b1-3)Gal(b1-3)GalNAc
Method in brief: as §1

[4] = biological target: Gal(b1-4)GlcNAc(b1-3)Gal(b1-3)GlcNAc
Method in brief: as §1

[5] = biological target: Gal(b1-4)GlcNAc(b1-3)Gal(b1-4)Glc
Method in brief: as §1

[6] = biological target: Gal(b1-4)GlcNAc(b1-3)Gal(b1-4)GlcNAc
Method in brief: as §1

[7] = biological target: Gal(b1-4)GlcNAc(b1-3)Gal(b1-4)GlcNAc(b1-2)Man(a1-3)[Gal(b1-4)GlcNAc(b1-3)Gal(b1-4)GlcNAc(b1-2)Man(a1-6)]Man(b1-4)GlcNAc(b1-4)GlcNAc
Method in brief: as §1

[8] = biological target: Gal(b1-4)GlcNAc(b1-3)Gal(b1-4)GlcNAc(b1-2)Man(a1-3)[Gal(b1-4)GlcNAc(b1-3)Gal(b1-4)GlcNAc(b1-2)Man(a1-6)]Man(b1-4)GlcNAc(b1-4)[Fuc(a1-6)]GlcNAc
Method in brief: as §1

[9] = biological target: Gal(b1-4)GlcNAc(b1-3)Gal(b1-4)GlcNAc(b1-2)[Gal(b1-4)GlcNAc(b1-3)Gal(b1-4)GlcNAc(b1-6)]Man(a1-6)[Gal(b1-4)GlcNAc(b1-3)Gal(b1-4)GlcNAc(b1-2)Man(a1-3)]Man(b1-4)GlcNAc(b1-4)GlcNAc
Method in brief: as §1

[10] = biological target: Gal(b1-4)GlcNAc(b1-3)Gal(b1-4)GlcNAc(b1-2)[Gal(b1-4)GlcNAc(b1-3)Gal(b1-4)GlcNAc(b1-6)]Man(a1-6)[Gal(b1-4)GlcNAc(b1-3)Gal(b1-4)GlcNAc(b1-2)Man(a1-3)]Man(b1-4)GlcNAc(b1-4)[Fuc(a1-6)]GlcNAc
Method in brief: as §1

[11] = biological target: Gal(b1-4)GlcNAc(b1-3)Gal(b1-4)GlcNAc(b1-3)Gal(b1-4)GlcNAc
Method in brief: as §1

[12] = biological target: Gal(b1-4)GlcNAc(b1-3)Gal(b1-4)GlcNAc(b1-3)Gal(b1-4)GlcNAc(b1-2)Man(a1-3)[Gal(b1-4)GlcNAc(b1-3)Gal(b1-4)GlcNAc(b1-3)Gal(b1-4)GlcNAc(b1-2)Man(a1-6)]Man(b1-4)GlcNAc(b1-4)GlcNAc
Method in brief: as §1

[13] = biological target: Gal(b1-4)GlcNAc(b1-3)Gal(b1-4)GlcNAc(b1-3)Gal(b1-4)GlcNAc(b1-2)Man(a1-3)[Gal(b1-4)GlcNAc(b1-3)Gal(b1-4)GlcNAc(b1-3)Gal(b1-4)GlcNAc(b1-2)Man(a1-6)]Man(b1-4)GlcNAc(b1-4)[Fuc(a1-6)]GlcNAc
Method in brief: as §1

[14] = biological target: Gal(b1-4)GlcNAc(b1-3)Gal(b1-4)GlcNAc(b1-3)Gal(b1-4)GlcNAc(b1-2)[Gal(b1-4)GlcNAc(b1-3)Gal(b1-4)GlcNAc(b1-3)Gal(b1-4)GlcNAc(b1-6)]Man(a1-6)[Gal(b1-4)GlcNAc(b1-3)Gal(b1-4)GlcNAc(b1-3)Gal(b1-4)GlcNAc(b1-2)Man(a1-3)]Man(b1-4)GlcNAc(b1-4)[Fuc(a1-6)]GlcNAc
Method in brief: as §1

[15] = biological target: Gal(b1-4)GlcNAc(b1-3)Gal(b1-4)GlcNAc(b1-3)Gal(b1-4)GlcNAc(b1-3)Gal(b1-4)GlcNAc(b1-2)Man(a1-3)[Gal(b1-4)GlcNAc(b1-3)Gal(b1-4)GlcNAc(b1-3)Gal(b1-4)GlcNAc(b1-3)Gal(b1-4)GlcNAc(b1-2)Man(a1-6)]Man(b1-4)GlcNAc(b1-4)GlcNAc
Method in brief: as §1

[16] = biological target: Gal(b1-4)GlcNAc(b1-3)Gal(b1-4)GlcNAc(b1-3)Gal(b1-4)GlcNAc(b1-3)Gal(b1-4)GlcNAc(b1-2)Man(a1-3)[Gal(b1-4)GlcNAc(b1-3)Gal(b1-4)GlcNAc(b1-3)Gal(b1-4)GlcNAc(b1-3)Gal(b1-4)GlcNAc(b1-2)Man(a1-6)]Man(b1-4)GlcNAc(b1-4)[Fuc(a1-6)]GlcNAc
Method in brief: as §1

[17] = biological target: Gal(b1-4)GlcNAc(b1-3)Gal(b1-4)GlcNAc(b1-3)Gal(b1-4)GlcNAc(b1-3)Gal(b1-4)GlcNAc(b1-2)[Gal(b1-4)GlcNAc(b1-3)Gal(b1-4)GlcNAc(b1-3)Gal(b1-4)GlcNAc(b1-3)Gal(b1-4)GlcNAc(b1-6)]Man(a1-6)[Gal(b1-4)GlcNAc(b1-3)Gal(b1-4)GlcNAc(b1-3)Gal(b1-4)GlcNAc(b1-3)Gal(b1-4)GlcNAc(b1-2)Man(a1-3)]Man(b1-4)GlcNAc(b1-4)[Fuc(a1-6)]GlcNAc
Method in brief: as §1

[18] = biological target: Gal(b1-4)GlcNAc(b1-3)Gal(b1-4)GlcNAc(b1-3)Gal(b1-4)GlcNAc(b1-3)Gal(b1-4)GlcNAc(b1-3)Gal(b1-4)GlcNAc(b1-2)Man(a1-3)[Gal(b1-4)GlcNAc(b1-3)Gal(b1-4)GlcNAc(b1-3)Gal(b1-4)GlcNAc(b1-3)Gal(b1-4)GlcNAc(b1-3)Gal(b1-4)GlcNAc(b1-2)Man(a1-6)]Man(b1-4)GlcNAc(b1-4)GlcNAc
Method in brief: as §1

[19] = biological target: Gal(b1-4)GlcNAc(b1-3)Gal(b1-4)GlcNAc(b1-3)Gal(b1-4)GlcNAc(b1-3)Gal(b1-4)GlcNAc(b1-3)Gal(b1-4)GlcNAc(b1-2)Man(a1-3)[Gal(b1-4)GlcNAc(b1-3)Gal(b1-4)GlcNAc(b1-3)Gal(b1-4)GlcNAc(b1-3)Gal(b1-4)GlcNAc(b1-3)Gal(b1-4)GlcNAc(b1-2)Man(a1-6)]Man(b1-4)GlcNAc(b1-4)[Fuc(a1-6)]GlcNAc
Method in brief: as §1

[20] = biological target: Gal(b1-4)GlcNAc(b1-3)Gal(b1-4)GlcNAc(b1-3)Gal(b1-4)GlcNAc(b1-3)Gal(b1-4)GlcNAc(b1-3)Gal(b1-4)GlcNAc(b1-2)[Gal(b1-4)GlcNAc(b1-3)Gal(b1-4)GlcNAc(b1-3)Gal(b1-4)GlcNAc(b1-3)Gal(b1-4)GlcNAc(b1-3)Gal(b1-4)GlcNAc(b1-6)]Man(a1-6)[Gal(b1-4)GlcNAc(b1-3)Gal(b1-4)GlcNAc(b1-3)Gal(b1-4)GlcNAc(b1-3)Gal(b1-4)GlcNAc(b1-3)Gal(b1-4)GlcNAc(b1-2)Man(a1-3)]Man(b1-4)GlcNAc(b1-4)[Fuc(a1-6)]GlcNAc
Method in brief: as §1

[21] = biological target: Gal(b1-4)GlcNAc(b1-3)Gal(b1-4)GlcNAc(b1-3)Gal(b1-4)GlcNAc(b1-3)Gal(b1-4)GlcNAc(b1-3)Gal(b1-4)GlcNAc(b1-3)Gal(b1-4)GlcNAc(b1-2)Man(a1-3)[Gal(b1-4)GlcNAc(b1-3)Gal(b1-4)GlcNAc(b1-3)Gal(b1-4)GlcNAc(b1-3)Gal(b1-4)GlcNAc(b1-3)Gal(b1-4)GlcNAc(b1-3)Gal(b1-4)GlcNAc(b1-2)Man(a1-6)]Man(b1-4)GlcNAc(b1-4)GlcNAc
Method in brief: as §1

[22] = biological target: Gal(b1-4)GlcNAc(b1-3)Gal(b1-4)GlcNAc(b1-3)GalNAc
Method in brief: as §1

[23] = biological target: Gal(b1-4)GlcNAc(b1-3)Gal(b1-4)GlcNAc(b1-3)[Gal(b1-4)GlcNAc(b1-3)Gal(b1-4)GlcNAc(b1-6)]GalNAc
Method in brief: as §1

B1: HPL (Tachypleus tridentatus) (protein)
chain: MEDDCTCVTDRSLEGKLMKHPSTPAVYQILDGCRRLVPNPPTYNNIYKNWECIQSNILEKLLCKCDSLSNGAELIKGSGDTVYLLSNGVKRPIADPETFNGFCFDWNKIKTYSDIVINSLSTGPIIIIKHHHHHH
glycan array binding signal (z-score) [1]: -0.058 | glycan array binding signal (z-score) [2]: -0.047 | glycan array binding signal (z-score) [3]: -0.372 | glycan array binding signal (z-score) [4]: 0.152 | glycan array binding signal (z-score) [5]: -0.233 | glycan array binding signal (z-score) [6]: -0.345 | glycan array binding signal (z-score) [7]: 0.115 | glycan array binding signal (z-score) [8]: -0.061 | glycan array binding signal (z-score) [9]: 2.19 | glycan array binding signal (z-score) [10]: -0.007 | glycan array binding signal (z-score) [11]: -0.229 | glycan array binding signal (z-score) [12]: 0.447 | glycan array binding signal (z-score) [13]: 0.169 | glycan array binding signal (z-score) [14]: 0.189 | glycan array binding signal (z-score) [15]: 0.062 | glycan array binding signal (z-score) [16]: -0.001 | glycan array binding signal (z-score) [17]: 0.091 | glycan array binding signal (z-score) [18]: 0.129 | glycan array binding signal (z-score) [19]: 0.917 | glycan array binding signal (z-score) [20]: 0.296 | glycan array binding signal (z-score) [21]: -0.206 | glycan array binding signal (z-score) [22]: 0.049 | glycan array binding signal (z-score) [23]: 0.221
